From paper PMC4336329 (PLoS ONE, 2015)
Out of some 310,000 compounds screened, about 2,200 (0.71%) showed an effect of 50% or more. The effect is printed as a negative number. Some of the results follow.

target: human ether-à-go-go-related gene (hERG) potassium channel (human, UniProt Q12809); assay: primary screen, population patch clamp on CHO cells stably expressing hERG
Sequence (Q12809 whole entry, looked up): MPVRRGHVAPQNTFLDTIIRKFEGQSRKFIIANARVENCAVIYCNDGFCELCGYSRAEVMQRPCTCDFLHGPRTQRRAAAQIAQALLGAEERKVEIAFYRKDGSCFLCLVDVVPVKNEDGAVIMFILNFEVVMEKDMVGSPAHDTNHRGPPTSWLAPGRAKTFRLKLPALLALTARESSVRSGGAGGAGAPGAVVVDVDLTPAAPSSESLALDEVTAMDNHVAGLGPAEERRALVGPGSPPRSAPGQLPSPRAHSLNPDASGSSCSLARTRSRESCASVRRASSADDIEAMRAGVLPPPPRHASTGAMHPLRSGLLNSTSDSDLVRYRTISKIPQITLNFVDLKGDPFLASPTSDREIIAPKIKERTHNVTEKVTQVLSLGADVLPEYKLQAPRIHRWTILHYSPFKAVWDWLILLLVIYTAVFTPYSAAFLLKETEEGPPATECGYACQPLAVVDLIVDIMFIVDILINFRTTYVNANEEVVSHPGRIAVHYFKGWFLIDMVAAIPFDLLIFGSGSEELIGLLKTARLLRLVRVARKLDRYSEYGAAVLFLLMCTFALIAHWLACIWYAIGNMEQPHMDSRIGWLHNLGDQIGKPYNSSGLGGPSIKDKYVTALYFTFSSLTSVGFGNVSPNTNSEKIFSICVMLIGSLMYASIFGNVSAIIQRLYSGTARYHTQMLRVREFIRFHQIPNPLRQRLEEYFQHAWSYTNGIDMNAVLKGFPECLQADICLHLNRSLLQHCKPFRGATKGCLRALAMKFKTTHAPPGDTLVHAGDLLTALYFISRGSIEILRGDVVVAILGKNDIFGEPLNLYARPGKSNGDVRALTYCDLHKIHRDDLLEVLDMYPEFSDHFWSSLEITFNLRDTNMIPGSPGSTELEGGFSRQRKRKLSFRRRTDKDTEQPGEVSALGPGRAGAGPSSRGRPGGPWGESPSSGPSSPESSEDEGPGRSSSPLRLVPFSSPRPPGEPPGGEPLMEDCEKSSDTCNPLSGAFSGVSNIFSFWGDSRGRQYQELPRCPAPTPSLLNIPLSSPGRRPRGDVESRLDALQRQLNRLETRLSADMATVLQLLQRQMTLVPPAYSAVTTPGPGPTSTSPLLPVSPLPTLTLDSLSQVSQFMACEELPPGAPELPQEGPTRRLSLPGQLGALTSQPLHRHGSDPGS

Row | Compound | hERG current change (%, negative = inhibition) at 1uM [%]
1 | CN(Cc1ccccc1F)Cc1cc(=O)oc2cc(O)c(Cl)cc12 | 13.8
2 | Cc1cccc(NC(=O)N2CCCC2C(=O)Nc2ccccc2)c1 (stereo not drawn) | 8.57
3 | COc1ccccc1C(=O)NNC1=NS(=O)(=O)c2ccccc21 | 17.8
4 | Cc1ccc(S(=O)(=O)N2CCC(C(=O)OCC(=O)NCc3ccco3)CC2)cc1C | -1.32
5 | COc1ccc(N(CC(=O)NCCC2=CCCCC2)S(=O)(=O)c2ccccc2)c(OC)c1 | 6.59
6 | CCOC(=O)Cn1c(SC)nc2sc3c(c2c1=O)CC(C)(C)OC3 | 10.6
7 | CCn1nc(C)c(/C=N/NC(=O)c2nc3nc(C)cc(C)n3n2)c1C | 9.71
8 | O=C(CCC(=O)N1CCN(c2ccccc2F)CC1)N1CCN(c2ccccc2)CC1 | -2.67
9 | O=C(CN1CCN(C(=O)N2CCCCC2)CC1)Nc1ccc(F)cc1 | -76.5
10 | Cc1ccc(C)c(Cn2nnc(C(=O)Nc3ccc4c(c3)OCCO4)c2N)c1 | 8.89
11 | C[C@@H](C(=O)OCn1nnc2ccccc2c1=O)N1C(=O)C2CCCCC2C1=O (stereo partly drawn) | 9.74
12 | CCOc1ccc(CC(=O)N/N=C(\C)c2cccnc2)cc1OCC | 8.19
13 | COc1cccc(NC(=O)Nc2ccc(Cc3ccncc3)cc2)c1 | 15.6
14 | CCOC(=O)C1CCN(C(=O)N(CC)CC)CC1 | 3.77
15 | COc1cc(-c2cc(-c3ccccc3)nc(SCC(=O)Nc3nccs3)c2C#N)cc(OC)c1OC | 0.652
16 | Cc1ccc(C)c(Cn2nnc3c(=O)[nH]c(C4CCCN(C(=O)C5CCCCC5)C4)nc32)c1 (stereo not drawn) | -20.7
17 | Cc1onc(-c2ccccc2Cl)c1C(=O)N(C)C1CCCCC1 | 6.24
18 | CCOC(=O)CCCNC(=O)COC(=O)c1cc(C)cc(C)c1 | 10.5
19 | CC(=O)OC1OCCOC1NC(=S)Nc1ccc(C)cc1 (stereo not drawn) | 8.06
20 | COc1ccc(C)cc1NC(=O)C(OC(=O)c1cnccn1)c1ccccc1 (stereo not drawn) | -2.84
21 | O=C(CSCc1ccc(C(=O)O)cc1)Nc1ccccc1 | 9.46

Row | Compound | hERG current change (%, negative = inhibition) at 1uM [%]
22 | CCc1nnc(NS(=O)(=O)c2ccc(NC(=O)c3ccccc3O)cc2)s1 | 10.2
23 | COc1cccc(N(C(=O)Cc2cccs2)C(C(=O)NC2CCCC2)c2ccncc2)c1 (stereo not drawn) | 14.6
24 | COc1ccc(/C=C(/NC(=O)c2ccco2)C(=O)Nc2cccc(C(=O)O)c2)cc1 | 15.9
25 | CCSc1nnc(NC(=O)C2C3CCC(C3)C2C(=O)O)s1 (stereo not drawn) | 7.47
26 | CS(=O)(=O)c1ccc(NC(=O)c2cccc(S(=O)(=O)N3CCN(Cc4ccccc4)CC3)c2)cc1 | 5.09
27 | C#CCOc1c(Br)cc(/C=N/O)cc1OCC | 7.1
28 | CC(Nc1cc(C)cc(C)c1)=[N+](C)CCNS(=O)(=O)c1ccc(Cl)cc1.[I-] | -15.8
29 | CC(SCC(=O)Nc1ccc(S(=O)(=O)N2CCCCC2)cc1)C(=O)O (stereo not drawn) | 7.05
30 | CCOc1ccccc1OCC(=O)Nc1cc(S(=O)(=O)N2CCCCC2)ccc1OC | -2.62
31 | CCOC(=O)N1CCN(C(=O)C(NC(=O)c2ccc(C(C)(C)C)cc2)C(C)C)CC1 (stereo not drawn) | -2.48
32 | O=C(Cc1ccc(-n2c(=O)c3ccccc3n(Cc3ccccc3F)c2=O)cc1)NCC1CCCO1 (stereo not drawn) | 5.51
33 | CC(CN1CCCCC1)OC(=O)c1cccc(F)c1.Cl (stereo not drawn) | 9.48
34 | COc1cccc(-n2c(SCC(=O)N3CCOCC3)nc3c([nH]c4ccccc43)c2=O)c1 | -3.04
35 | Cc1ccc(-c2nc(C3CCN(S(=O)(=O)c4ccc(C(F)(F)F)cc4)CC3)no2)cc1 | 8.97
36 | O=C1CCC(C(=O)OCC(=O)N2N=C3/C(=C/c4ccccc4)CCCC3C2c2ccccc2)N1 (stereo not drawn) | -1.66
37 | CCC(CC)c1nnc(NC(=O)c2cc(-c3ccccc3)nc3ccccc23)s1 | 10.3
38 | Cn1ccs/c1=N\S(=O)(=O)c1ccc(C(C)(C)C)cc1 | 12
39 | CCOc1ccc(-c2cc(C(=O)NCCCn3ccnc3)c3ccccc3n2)cc1 | 4.41
40 | Cn1c(=O)oc2cc(S(=O)(=O)N3CCc4ccccc4C3)ccc21 | 13.2
41 | CCCCC1=CC2=CC(=O)C(C)(OC(=O)CC)C(=O)C2=CN1Cc1ccc2c(c1)OCO2 (stereo not drawn) | -0.198
42 | CN1CCc2c(C#N)c(N3CCCCC3)nc(N3CCOCC3)c2C1 | -10.7
